Source: the supplement of paper PMC3334620
In all, about 33,000 sequences were measured (“E-score (-0.5 to 0.5)”: median about -0.01, highest 2% from about 0.26 on). This is one part of the list.

The sequences below were run against Ste12 (UniProt P13574) (assay: PBM E-score (8-mer binding enrichment) (E-score (-0.5 to 0.5)); higher = stronger / more preferred TF binding; most listed sequences are background and not binding sites). Details: protein concentration: 200 nM; construct: GST-DNA-binding domain.
Procedure, shortened: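 Universal all-10-mer Agilent arrays, fresh or stripped once, were converted to double-stranded form by primer extension. GST-tagged yeast transcription factors from PURExpress in vitro transcription/translation, full-length or DNA-binding domain only, were applied at about 100-200 nM and detected with fluorescent anti-GST. After masliner normalisation, the Universal PBM Analysis Suite scored each ungapped eight-base word together with its reverse complement by E-score.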

Sequence | PBM E-score
AAAAGTGC | 0.0185
GAATCATA | 0.0963
CCACCGGG | -0.144
CATTTAAA | 0.277
CCGGTTTA | -0.00824
AGGCCAGA | 0.107
GTCATAAC | 0.0163
GGATTAGA | 0.11
AGATAACG | -0.0951
CACTACGA | -0.0784
GAAGCTGA | -0.0304
GCACCGAC | -0.167
GATTTACA | 0.0155
AGTTTTTG | 0.239
CACTGTAC | -0.287
CATAATGC | -0.0326
ACGTTGCT | -0.0688
GCCTCCCA | -0.104
GAACGACA | 0.015
GGCAGGAC | -0.227
CCGGTCCC | -0.0788
ATTACGAG | 0.0384
CTCTTAGA | -0.134
TCGTCACA | 0.115
AGAAAAAC | 0.146

Sequence | PBM E-score
ACATCATA | 0.151
CCATCCCC | 0.0914
CACATGCG | -0.184
AATTAGCC | -0.0154
AGATTATG | 0.0156
AGCGTGGG | -0.208
AACTTGCA | 0.0129
GCCCCTGA | -0.0535
ACGGTTTG | 0.0815
CGGGATCC | -0.00773
CCGTGAAA | 0.129
CTTTACTA | 0.0971
CCTCTTCA | 0.0526
ATAAGTAA | 0.123
GTGAGCCA | -0.0733
ATAAATAA | 0.266
CAATGGAA | 0.0433
ACAGGCCC | 0.0896
AACTAAAT | 0.188
AATCACCA | 0.0129
CCACTTTC | 0.0181
CAGCCCAA | -0.0109
CCCACTGC | -0.0833
GGCCACGA | -0.00594
TAGCTCCA | -0.074

Sequence | PBM E-score
CGAACCGA | -0.0902
AGTGGCGG | 0.00523
TCGTGCCA | -0.051
TCGGCCAA | -0.0251
CGAATGGC | 0.109
CAGGGACG | -0.0549
CACTAGCA | -0.146
AGATACGA | 0.125
ATGGGCTG | -0.202
GTAACGAC | -0.053
CATTCTTC | -0.119
TACCAAAA | 0.204
GAGCCAGA | -0.0414
GAGAGCCC | -0.384
ACAGTCTG | -0.111
CCGTCAAA | 0.0523
GATTTGAA | 0.129
TCGCCCGA | -0.105
CGGATAGC | -0.161
ACTAAGGA | -0.129
TACTCAGA | 0.0273
ATTAGAGC | 0.0484
ACATCGAT | 0.0247
GACACGCC | -0.0148
AGCTGGTA | -0.132

Sequence | PBM E-score
CTCAGTCA | 0.0212
GGAAATTA | 0.0595
CTGACTGC | -0.146
GTGGAGGA | -0.0464
CTAGGCAC | -0.156
GTACCTCA | -0.173
GCCTGATA | -0.066
AAAGGAAG | 0.131
CTCGCGAA | -0.0542
ACATACCG | -0.117
AGCATCAT | -0.131
AGCTCGCA | -0.121
GACCACTC | -0.0235
TACGATAA | 0.0619
CAAATTTC | 0.139
AACTCGCT | 0.0734
ATCTGCAG | -0.069
GCAGCTAA | -0.0419
GAAATTAC | 0.176
CGCAGTAA | -0.00333
GCATCGTA | -0.108
AGTTCGGG | 0.0926
GCAGTCTA | -0.0872
GCGAACGC | -0.0675
CAGCTTGC | -0.0975

Sequence | PBM E-score
CACTGTTC | 0.0569
TAAGTTCA | 0.151
CTAGCAGC | 0.0464
ATATACAG | 0.143
ATGTTACA | 0.297
CCAGATTA | 0.113
ACTAGTTC | 0.0193
ACCCCTTG | -0.176
AAAAGTAC | 0.154
GGTTAGTA | 0.0303
ACGGGCGG | 0.0155
AAGTTTCT | 0.213
ATCCGTCA | -0.0362
TCAGCAAA | 0.125
ATTTCCTA | 0.151
AAGCTTTC | 0.0154
CAAGCCGG | 0.123
TCGACTCA | 0.092
ACGCCTAT | -0.132
CGCGACCG | 0.115
GAGAGCGC | -0.102
GCTAAGAA | 0.0183
ACCATACA | 0.0187
CGTAAGAG | -0.0457
CGTTCGTA | 0.0776

Sequence | PBM E-score
ACGTACCG | -0.0992
GAATGATC | 0.00293
AGGTACCT | -0.353
CCTGAATC | 0.132
TATGGAGA | 0.0138
CTTAGCAC | -0.0994
GCTATAAA | 0.139
GTTGTTAA | 0.23
AGTTAGTA | 0.0408
ACTGCTAC | -0.0429
AGCCGGCT | 0.042
AGGATCTG | -0.0723
CTTAGCCC | -0.0774
GACGAAAA | 0.238
GGTTTCCA | -0.0565
CGTTAGCA | -0.00614
AGCATCGG | -0.158
ACACGGAA | 0.114
CGGGCAAA | -0.043
AGGCTTTA | -0.067
CAGAGCCA | -0.0745
ATCCTTAC | 0.0612
ATAGATGA | 0.0748
ATCGATAA | 0.0819
ACCCGTGG | -0.163

Sequence | PBM E-score
GTTTTGGA | 0.218
CTCGACAA | -0.0192
CAATATGG | 0.0197
AACCTACG | -0.0482
ACTATGTA | 0.124
ATGACTTG | 0.0878
ACTCCAAT | -0.0179
GCGTGAAA | 0.25
TCCTCCAA | 0.132
CTGAACTC | -0.108
ATGACTGC | -0.15
GAGTGTGC | -0.0443
GTGCGATA | 0.0306
CTGGCAAA | 0.139
ATCTTCGA | 0.0611
AATACCCG | 0.117
GCCCACGA | -0.0962
AACCGAGC | -0.0297
ATGGCCTC | 0.0146
AGCGAGTC | -0.105
AGTGCAAG | 0.024
TACATAAA | 0.14
GAGCGCCC | 0.0499
CACAATTC | 0.127
CCTAGGGA | -0.184

Sequence | PBM E-score
GAGAATGC | -0.118
CCCCAAGC | 0.176
CGGCCGAG | 0.0334
ACAACGCC | 0.0444
TCAATAGA | -0.0351
AGTCTCCC | -0.0537
AGCGGACG | 0.129
CTCTTCGA | -0.152
CCGCGAGG | -0.0556
TCAATTCA | 0.0749
GCCTCCTA | -0.166
GGGCGAGA | -0.113
CCCTTCCC | 0.0687
CGCTGAAA | 0.251
AGCTATAT | -0.0275
CATATGAG | 0.221
TAGCCTAA | -0.126
GTAGGGAC | -0.242
ACTGGTGC | -0.00656
GAGGCGGC | 0.0439
ACCAAGAC | 0.105
ATCCGAAA | 0.185
GGCAGGAA | -0.136
GTACGGTA | 0.0168
ACTAAATG | -0.0189

Sequence | PBM E-score
GAGTAAAA | 0.0362
AGTGCCAC | -0.323
AAAACCGG | 0.246
AAGCTGGG | -0.0272
AGATGTCC | -0.112
CAGGAAGC | -0.0287
GCGTGCAA | -0.0515
AAGTGCCG | 0.0249
CTAAGACC | -0.0709
CTCCATAA | -0.0873
GCTGGACA | -0.307
AAAAAACC | 0.234
AGAGCCAA | 0.0313
TGGGACCA | -0.101
AACGTCCA | -0.0736
AAGATCTA | -0.0681
CGGATTAG | -0.0231
TCCGCAAA | 0.178
GCGGCTGA | -0.214
ATTGGCGG | -0.168
ACCCCAAG | 0.0115
ATCGGACA | -0.0762
CGGAAGCA | 0.0387
CCCTATAC | -0.0594
CCCGGTGC | 0.0158

Sequence | PBM E-score
CGTGAATA | 0.00681
GACCTTAC | 0.114
TAGTGAGA | 0.217
AACTCACG | 0.0512
GGAGTCCC | -0.107
CCTATACG | -0.0498
TAGTTCAA | 0.108
AGTGGTCG | -0.0168
ATGGAGCG | -0.0832
ATCTAACA | 0.122
CCAACGGC | -0.15
CGGCGGTA | 0.197
GGGAAGGA | -0.139
GTTATAGA | -0.0131
AAAAAATG | 0.254
CAAAGTGC | 0.00148
GATCCTAC | 0.0769
CGCCACAA | 0.103
ACTCCCCT | -0.0514
CATAGTAA | 0.205
CCTTTGAA | 0.0975
CGTGATTC | -0.108
ACGGGGGC | -0.192
TCGCCACA | -0.037
AAGGTACT | 0.0324

Sequence | PBM E-score
ACTATCAC | -0.0658
GGGGCCGA | -0.157
CTGTGGCA | -0.122
TAGATCCA | -0.127
CATATATC | 0.0851
AAGTACCC | -0.115
GAGGCGGA | -0.189
CCAACAGC | -0.134
ATCTGGCG | -0.0613
ACTCGTAA | 0.12
CCTGTTAG | 0.199
ATCGCGAT | 0.0912
TGGTGACA | 0.048
CCAGACAG | -0.145
ATCTCTGG | -0.236
CGCTGGTC | -0.284
AGGTGTAA | 0.0911
GCTAGCAC | -0.11
TACCCATA | -0.101
CACAGGAA | -0.0364
ACAATCGG | 0.0804
GCATTGAC | -0.095
GGGTGTGA | -0.0262
CCTCCGCA | -0.03
CATCCATA | 0.0995

Sequence | PBM E-score
GAGCTTCC | -0.112
GGTGTTAC | -0.0374
AACACGAC | -0.104
AATCTCAA | 0.155
CCACCTCA | -0.13
ACTTAGCA | -0.0684
GCACTCGC | -0.16
GCAGCGGA | -0.0871
AAGTGACA | 0.0639
CACCGCAA | 0.157
GCTCCTCC | -0.019
AGACAAAA | 0.0746
ATGCTGGA | 0.0606
CAGAATTC | 0.0783
AACCCACA | -0.0351
CCCGATCA | -0.0546
CACAGTGG | -0.119
GGACCGAC | 0.0392
AAGAAGAC | -0.133
AACATGGA | 0.184
GGGATAGA | -0.012
GATGTGCC | -0.228
GACCTGGC | -0.227
CCGATAGC | -0.104
AGGAGTAT | -0.0896

Sequence | PBM E-score
AGTAACGG | 0.0216
GGGATCAC | -0.184
CGGCCCTC | -0.321
CGCAGACC | -0.118
ATCTTCTG | 0.0191
CCCGACGC | -0.0237
AGATAGCC | -0.234
GAGGCACC | -0.152
ACCTGTTG | 0.0246
CGGTTCTC | -0.0663
CCGCTACG | 0.0563
AAGACGCG | 0.0338
ACATCCGA | 0.0318
TAATGACA | 0.0872
ACACAATG | 0.154
CAAGGGGC | -0.0646
CTGGGCAA | -0.0128
CAATTTAA | 0.2
ACTGGTAG | -0.0346
CACTTATC | 0.0779
CCACGTCC | -0.343
ACGACTTC | -0.109
GGCGTACA | -0.244
ATATTCAC | -0.0138
CAGCCTCA | -0.119

Sequence | PBM E-score
ACTTTTTC | 0.187
AAAATAGC | 0.0345
ACGGACAA | 0.0382
AGCAAACT | 0.114
AGTAACTG | -0.013
CGTGTTGC | 0.0401
CGATCGCG | 0.128
GGCTGTTA | 0.0481
GTAGAACA | -0.0742
GGCGACCA | -0.136
CACACAAG | 0.0241
AACTAATT | 0.0258
CGTCGTTA | -0.282
GCTTTCTA | 0.182
CAATGTTA | 0.0857
CGGGACAC | 0.0126
ACAGCACT | -0.0837
TATACATA | 0.134
CGAAGCAC | -0.0432
